The results in this text go back to PMC4336329 (PLoS ONE, 2015).

Structures are written as SMILES. In all, about 310,000 compounds went through this assay and about 2,200 (0.71%) showed an effect of 50% or more. The effect is printed as a negative number. The list shows a part of the results.

Sequence of human ether-à-go-go-related gene (hERG) potassium channel (Q12809 whole entry, looked up): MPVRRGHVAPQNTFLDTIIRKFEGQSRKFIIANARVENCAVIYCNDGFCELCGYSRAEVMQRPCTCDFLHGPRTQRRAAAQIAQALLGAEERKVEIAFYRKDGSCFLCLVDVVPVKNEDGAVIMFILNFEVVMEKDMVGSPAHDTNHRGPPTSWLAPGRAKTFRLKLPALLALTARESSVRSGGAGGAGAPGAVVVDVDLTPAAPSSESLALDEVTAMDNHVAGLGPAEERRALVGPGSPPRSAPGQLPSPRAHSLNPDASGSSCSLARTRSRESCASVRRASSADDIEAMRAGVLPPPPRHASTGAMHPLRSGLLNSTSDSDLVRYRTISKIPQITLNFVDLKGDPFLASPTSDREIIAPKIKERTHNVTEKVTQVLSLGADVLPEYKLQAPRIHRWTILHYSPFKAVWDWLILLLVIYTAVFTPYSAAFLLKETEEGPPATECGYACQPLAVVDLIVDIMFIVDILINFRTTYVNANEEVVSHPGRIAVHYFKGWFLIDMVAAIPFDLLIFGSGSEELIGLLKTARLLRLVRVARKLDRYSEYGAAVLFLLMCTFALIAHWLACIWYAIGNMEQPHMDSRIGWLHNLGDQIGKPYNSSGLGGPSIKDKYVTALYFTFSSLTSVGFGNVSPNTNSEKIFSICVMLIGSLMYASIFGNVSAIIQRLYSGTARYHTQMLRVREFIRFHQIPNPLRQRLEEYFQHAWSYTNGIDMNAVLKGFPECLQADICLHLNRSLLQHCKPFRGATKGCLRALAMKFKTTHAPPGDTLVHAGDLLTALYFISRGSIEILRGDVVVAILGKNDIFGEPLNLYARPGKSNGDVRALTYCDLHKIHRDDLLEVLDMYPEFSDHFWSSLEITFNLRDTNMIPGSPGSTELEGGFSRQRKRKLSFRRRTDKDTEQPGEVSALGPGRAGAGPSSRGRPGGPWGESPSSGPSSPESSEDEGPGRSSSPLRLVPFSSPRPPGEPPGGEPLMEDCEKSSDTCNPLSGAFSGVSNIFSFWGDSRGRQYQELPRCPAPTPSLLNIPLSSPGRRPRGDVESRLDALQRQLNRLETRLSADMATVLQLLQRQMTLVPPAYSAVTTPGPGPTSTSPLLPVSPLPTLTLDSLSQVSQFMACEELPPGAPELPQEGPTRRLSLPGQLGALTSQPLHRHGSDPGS

The assay concerns the target human ether-à-go-go-related gene (hERG) potassium channel (human, UniProt Q12809). Put plainly: primary screen, population patch clamp on CHO cells stably expressing hERG.
`Cc1ccc(C2=CC(c3ccccc3)n3ncnc3N2)c(C)c1` (centres unmarked): the “hERG current change (%, negative = inhibition) at 1uM” value was 14.5%.
Turning to `COc1ccc(/C=C(/NC(=O)c2ccccc2)C(=O)N2CCCCC2)cc1`, the “hERG current change (%, negative = inhibition) at 1uM” value came out at 6.93%.
Then `COc1ccc2c(CC(=O)N3CCc4ccccc43)coc2c1`, with 9.36%; and `O=C(COC(=O)CCC(=O)c1cccs1)NCc1cccs1`, with 12%; and `N#Cc1ccccc1S(=O)(=O)N1CCN(Cc2c(O)ccc3ccccc23)CC1`, with 7.61%.
With `COCCn1c(=S)[nH]c2ccccc21`, the “hERG current change (%, negative = inhibition) at 1uM” value stood at 11.2%.
`C=CCn1c(SCc2cccc(OC)c2)nnc1-c1ccncc1`: the “hERG current change (%, negative = inhibition) at 1uM” value is 2.36%.
Turning to `COc1ccc(N(CC(=O)NCc2ccco2)C(=O)CCC(=O)Nc2nccs2)cc1`, the “hERG current change (%, negative = inhibition) at 1uM” value turned out to be 6.73%.
Turning to `Cc1cccc(C)c1NC(=O)CN1C(=O)S/C(=C\c2cccn2-c2cccc(C(=O)O)c2)C1=O`, the “hERG current change (%, negative = inhibition) at 1uM” value turned out to be 8.75%.
With `COCCNC(=S)NCCCNc1nc2cc3c(cc2cc1C#N)OCO3` the figure was 7.9%.
Take `O=C(CSc1nc2[nH]ncc2c(=O)[nH]1)Nc1ccccc1F`: the “hERG current change (%, negative = inhibition) at 1uM” value is recorded as -3.59%.
As to `CC(=O)NC(Nc1c(C)n(C)n(-c2ccccc2)c1=O)C(Cl)(Cl)Cl` (centres unmarked), the “hERG current change (%, negative = inhibition) at 1uM” value is listed as -4.28%.
With `COCCOC1CCN(C(=O)c2ccc(OC)c(OC3CCN(C(C)C)CC3)c2)CC1` the figure was 17.9%; with `Cc1ccc(C(=O)NCC(=O)Nc2cccc(S(=O)(=O)NC3=NCCCCC3)c2)cc1C`, 21.3%; with `Cc1cccc(C)c1NC(=O)CSc1cc(C(=O)c2nccn2C)c2ccccc2n1`, 14.7%.
For the compound `Cc1ccccc1Nc1c(-c2cccnc2)nc2cccc(C)n12`, the “hERG current change (%, negative = inhibition) at 1uM” value was -3.73%.
Consider `CCNC(=O)C(C)NC(=O)C1=NN(c2ccccc2)C(=O)CC1` (centres unmarked), for which the “hERG current change (%, negative = inhibition) at 1uM” value turned out to be 11.3%.
As for `O=C(O)C/C(=C\c1cc(Cl)c2c(c1)OCO2)c1nc2ccccc2s1`, the “hERG current change (%, negative = inhibition) at 1uM” value came out at 16.2%.
In the case of `O=C(CC1OC(=O)c2ccccc21)NNC(=O)c1ccc(F)cc1` (centres unmarked), the “hERG current change (%, negative = inhibition) at 1uM” value is on record as -4.7%.
Take `CN1CCN(Cc2ccc(Sc3ccc(Cl)cc3)c([N+](=O)[O-])c2)CC1`: the “hERG current change (%, negative = inhibition) at 1uM” value was -16.3%.
As to `CC(=O)Nc1c(C)cc(S(C)(=O)=O)cc1C`, the “hERG current change (%, negative = inhibition) at 1uM” value is 14.1%.
On to `COc1ccc(CNC(=O)C/C(C)=N/NC(=O)C(c2ccccc2)c2ccccc2)cc1`, for which the “hERG current change (%, negative = inhibition) at 1uM” value is 1.82%.
As for `CCNS(=O)(=O)c1ccc(NC(=O)Cn2nc(C(F)(F)F)cc2C)cc1`, the “hERG current change (%, negative = inhibition) at 1uM” value was found to be 6.33%.
Regarding `CCc1ccc(-c2nn(-c3ccccc3)cc2C2SCC(=O)N2Cc2ccco2)cc1` (centres unmarked), the “hERG current change (%, negative = inhibition) at 1uM” value came to 11.4%.
Then `COC(=O)CC(=O)CSc1nc(C)cc(C)c1C#N`, with 19.8%; and `Cc1cccc(OS(=O)(=O)NC(=O)OCC2CCCN3CCCCC23)c1` (centres unmarked), with 13.5%.
For `CN1CCN(c2nc(N)cc(=O)[nH]2)CC1`, the “hERG current change (%, negative = inhibition) at 1uM” value is reported as 13.6%.
As to `COc1ccc([N+](=O)[O-])cc1NC(=O)Cc1ccccc1Cl`, the “hERG current change (%, negative = inhibition) at 1uM” value is 10.1%.
Then `CCOc1ccc(S(=O)(=O)N(CC)CC(=O)N2CCCC2)cc1C`, with 18.6%; and `C=CCn1c(COc2ccc(CC)cc2)nnc1SC/C(O)=C(\C#N)c1nc2ccccc2[nH]1`, with 7%.
On to `COc1cccc(N(CC(=O)Nc2cccc(C(C)=O)c2)S(C)(=O)=O)c1`, for which the “hERG current change (%, negative = inhibition) at 1uM” value stood at 11.2%.
`CC1CCN(S(=O)(=O)c2cccc(C(=O)Nc3ccccn3)c2)CC1`: the “hERG current change (%, negative = inhibition) at 1uM” value is -7.63%.
On to `CCOc1ccc2[nH]c(=O)c(CN(Cc3cccnc3)C(=O)Nc3ccccc3OC)cc2c1`, for which the “hERG current change (%, negative = inhibition) at 1uM” value is 10.1%.
Then `O=C(c1ccc2oc(CCCc3ccccc3)nc2c1)N1CCCC(CCCO)C1` (centres unmarked), with 7.06%; and `O=C(C1CCN(S(=O)(=O)c2ccc(Br)s2)CC1)N1CCN(c2ccccc2)CC1`, with 12.8%; and `COc1ccc(-n2c(CCc3ccccc3)nnc2SCC(=O)NCc2ccccc2)cc1`, with 1.21%.
Take `COc1cc(/C=N/N2CCOCC2)ccc1OC(=O)c1ccco1`: the “hERG current change (%, negative = inhibition) at 1uM” value amounted to 20.3%.
Then `CC(Nc1nc(N2CCOCC2)nc2ccccc12)c1ccccc1` (centres unmarked), with -52.7%.
With `Cc1ccc2c(CNCc3ccccc3)cc(=O)oc2c1` the figure was 16.3%; with `CC(=O)c1c(C)nc2ccc(C)cc2c1-c1ccccc1`, 3.33%; with `CCCCCC(=O)N1CCCCC1`, -2.84%.
For `COc1ccc(NC(=O)C2CCCN(S(C)(=O)=O)C2)c(OC)c1` (centres unmarked), the “hERG current change (%, negative = inhibition) at 1uM” value is on record as 15.2%.
Then `COc1ccccc1OCCNC(=O)c1ccc(C)c(S(=O)(=O)N2CCOCC2)c1`, with -0.793%; and `CCN(CC)CCCN1C(=O)C(O)=C(C(=O)c2sc(C)nc2C)C1c1ccco1` (centres unmarked), with 2.41%; and `NC(=O)NCC(c1ccccc1)C1CCCCC1` (centres unmarked), with 20.3%.
On to `COc1cccc(NC(=O)c2ccc3nsnc3c2)c1`, for which the “hERG current change (%, negative = inhibition) at 1uM” value came out at 10.3%.
As for `O=S(=O)(c1ccc(F)c(F)c1)N1CCN(S(=O)(=O)c2cccs2)CC1`, the “hERG current change (%, negative = inhibition) at 1uM” value amounted to 11.9%.
Turning to `COc1ccc(C(=O)N2CCN(Cc3ccc(OC)c(OC)c3)CC2)cc1.O=C(O)C(=O)O`, the “hERG current change (%, negative = inhibition) at 1uM” value came to 9.64%.
For the compound `O=C(c1ccccc1NS(=O)(=O)c1cccs1)N1CCOCC1`, the “hERG current change (%, negative = inhibition) at 1uM” value amounted to 1.4%.
Take `O=[N+]([O-])c1ccc(N2CCCCCC2)c(S(=O)(=O)N2CCCCC2)c1`: the “hERG current change (%, negative = inhibition) at 1uM” value is on record as 6.38%.
For the compound `CSCC[C@H](NC(=O)Cc1c(C)c2cc3c4c(oc3cc2oc1=O)CCCC4)C(=O)O`, the “hERG current change (%, negative = inhibition) at 1uM” value is reported as 14.3%.
Consider `O=C(Cn1c(=O)c2cccn2c2cccnc21)N1CCN(c2ccccc2F)CC1`, for which the “hERG current change (%, negative = inhibition) at 1uM” value amounted to 16%.
Regarding `CN(C)c1ccnc(Oc2ccc(Cl)cc2)c1C#N`, the “hERG current change (%, negative = inhibition) at 1uM” value was -0.389%.
Regarding `COc1ccc(COC(=O)C2=C(C)NC(=O)NC2c2ccc(OC)cc2)cc1` (centres unmarked), the “hERG current change (%, negative = inhibition) at 1uM” value is reported as 13.4%.
Then `Cc1cc(C)c(NC(=O)CNC(=O)COC(=O)CNC(=O)c2ccc(Cl)cc2Cl)c(C)c1`, with 10.1%.
Regarding `O=C(/C=C\Nc1ccccn1)c1ccc(Cl)cc1`, the “hERG current change (%, negative = inhibition) at 1uM” value is reported as 5.43%.
